Laboratory results as given in PubChem BioAssay AID1745845 (National Center for Advancing Translational Sciences (NCATS), 2022).
The whole screen tested about 360,000 compounds, of which about 2,600 (0.72%) were called active. Inconclusive results, whose numbers are uncertain, are shown with a selection of clear calls. Calls come from the whole dose curve; as a rule, active = well fitted inhibition curve with a large enough effect; inconclusive = small, poorly fitted or top-dose-only effect; inactive = no such curve, though single readings can be large or run the other way. A potency beside an inconclusive call is a rough fit, not a confirmed value. Where a structure was tested more than once in an assay, its records may differ in their call.

assay: Primary qHTS for Inhibitors of ATXN expression; conditions: HEK-293 ATXN2-luciferase reporter, luminescence, 24 h; activity change, negative = inhibition: at 57 µM (top of the series); note: nearly all actives have a fitted effect of over 55% in size
In short: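 ATXN2-luciferase reporter cells (luciferase flanked by upstream and downstream ATXN2 gene portions) were treated 24 h at 37 °C with compounds at up to 57 uM. SteadyGlo luminescence gave expression; GF-AFC fluorescence gave viability.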
% is set by controls: 0 for no effect and ±100 for the full control effect; potency is the fitted concentration of half-maximal effect; tags give direction and shape of the fitted curve.

Row | Compound | Potency | activity change, negative = inhibition
1 | C[C@@H](c1ccccc1)N1C[C@@H](COCc2ccccc2)Oc2cc(N3CC[C@H](O)C3)ccc2S1(=O)=O | inconclusive: 17.8 µM [inhibitor, partial curve, poor fit] | 
2 | O=C(COC(=O)CCc1nc2ccccc2c(=O)[nH]1)NC(=O)NC1CCCC1 | inconclusive: 3.55 µM [inhibitor, partial curve, poor fit] | 
3 | C[C@H](CO)N1C[C@H](C)[C@H](CN(C)S(=O)(=O)c2cccc(F)c2)OCc2ccccc2-c2c(n(C)c3ccccc23)C1=O | inconclusive: 35.5 µM [inhibitor, single point] | 
4 | CC(C)Cn1c(N)c(C(=O)COC(=O)c2ccccc2C(=O)c2ccccc2)c(=O)n(C)c1=O |  | inactive: -8.26%
5 | CCCCN1C(=S)NC[C@@H]1Cc1ccccc1 | inconclusive: 28.2 µM [inhibitor, partial curve, poor fit] | 
6 | O=c1c2sc3ccccc3c2n(Cc2ccccc2F)c(=O)n1CCc1ccccc1 |  | inactive: 44.4%
7 | COC(=O)Nc1ccc(-c2nc(N3CCOCC3)c3cnn(C4CCN(C(=O)OC)CC4)c3n2)cc1 | inconclusive: 24.3 µM [inhibitor, partial curve] | 
8 | N=c1c(C(=O)NCC2CCCO2)cc2c(=O)n3ccccc3nc2n1Cc1ccccc1Cl (configuration not stated) | inconclusive: 7.08 µM [inhibitor, single point] | 
9 | CC1=C(C(=O)N(C(C)C)C(C)C)CC(CC(=O)NCc2cccs2)C(=O)N1Cc1ccc(C(C)(C)C)cc1 (configuration not stated) | inconclusive: 39.8 µM [inhibitor, single point] | 
10 | C(=C\c1ccccc1)/C=N/Nc1nc(N2CCCCC2)nc(N2CCCCC2)n1 | inconclusive: 22.4 µM [inhibitor, partial curve, poor fit] | 
11 | CC(C)(C)OC(=O)N1CCC(c2c(C(=O)NCc3ccco3)cnn2-c2ccc(F)cc2)CC1 |  | inactive: -6.12%
12 | O=[N+]([O-])c1cccc(Cn2cnc3c(=S)nc[nH]c32)c1 | inconclusive: 28.2 µM [inhibitor, partial curve, poor fit] | 
13 | O=C(Nc1cccc(-c2cccc(Cl)c2)c1)C1CCN(Cc2ccccn2)CC1 | inconclusive: 39.8 µM [inhibitor, single point] | 
14 | CN1CCC(Nc2ncc3ncnc(Nc4ccc(F)c(Cl)c4)c3n2)CC1 | active: 28.2 µM | 
15 | COc1ccc(-c2nc(NC(=O)CCNC(=O)c3ccco3)sc2C)cc1 | inconclusive: 0.0047 µM [inhibitor, full curve, poor fit] | 
16 | Cn1c(SCc2ccc(C(C)(C)C)cc2)nnc1C1COc2ccccc2O1 (configuration not stated) | inconclusive: 10 µM [inhibitor, partial curve] | 
17 | CCN(CC)c1ccc(NC(=O)C2COc3ccc(OC)cc3C2)c(C)c1 (configuration not stated) | inconclusive: 35.5 µM [inhibitor, partial curve, poor fit] | 
18 | CCCOc1ccc(OCCNC2CCCC2)cc1 |  | inactive: 12.9%
19 | NNC(=O)c1oc2nc(-c3ccccc3)cc(-c3ccco3)c2c1N | inconclusive: 8.91 µM [inhibitor, partial curve, poor fit] | 
20 | CN(C)c1ccc(/C=N/NC(=O)c2ccc(NC(=O)c3ccccc3)cc2)cc1 | inconclusive: 35.5 µM [inhibitor, single point] | 
21 | COC(=O)/C(=C1/Oc2cc(C)oc(=O)c2S1)C(F)(F)F | inconclusive: 28.2 µM [inhibitor, single point] | 
22 | Cc1nc(C)c(C(=O)NNS(=O)(=O)c2ccc([N+](=O)[O-])cc2)s1 | inconclusive: 2.67 µM [inhibitor, partial curve] | 
23 | CCCC[C@@H](CN[C@H](C)CNC)NCC1CCC(C(C)(C)C)CC1 (some centres not stated) | active: 35.5 µM | 

Row | Compound | Potency | activity change, negative = inhibition
24 | O=C(CCNC(=O)c1ccccc1Cl)Nc1nccs1 | inconclusive: 0.844 µM [inhibitor, partial curve, poor fit] | 
25 | CC1Sc2ccc(S(=O)(=O)CCC(=O)N3CCN(c4cccc(Cl)c4)CC3)cc2NC1=O (configuration not stated) | inconclusive: 25.1 µM [inhibitor, single point] | 
26 | N#CNC(=Nc1cccc(F)c1)SCc1cccc(F)c1 |  | inactive: -5.59%
27 | COC(=O)c1cc(C(=O)N2CCN(c3cccc(C)c3C)CC2)cc([N+](=O)[O-])c1 | inconclusive: 22.4 µM [inhibitor, single point] | 
28 | CN(Cc1ccccc1F)c1nc(-c2cccnc2)nc2ccccc12 |  | inactive: -16.5%
29 | CCOC(=O)CSc1nc2c(sc3ccc([N+](=O)[O-])cc32)c(=O)n1Cc1ccco1 |  | inactive: -27.7%
30 | CCOc1ccc(OCC(=O)Nc2c(C(=O)Nc3ccc(C)cc3)oc3ccccc23)cc1 |  | inactive: 4.33%
31 | CCCCCCCNC(=O)C1(CC2CC(c3ccc(Cl)cc3)=NO2)CCNCC1 (configuration not stated) | active: 28.2 µM | 
32 | CC(C)n1c(SCC(=O)Nc2nc3ccccc3s2)nc2c1c(=O)n(C)c(=O)n2C | inconclusive: 31.6 µM [inhibitor, partial curve, poor fit] | 
33 | CCCCNc1c(-c2ccc(OC)c(SC(C)CC)c2)nc2ccc(C)cn12 (configuration not stated) | active: 12.6 µM | 
34 | Cc1ccc(C)c(/C=C/C(=O)c2ccccc(=O)c2O)c1 | active: 17.8 µM | 
35 | Cc1cc(N/N=C\c2ccc(Br)cc2)nc(-n2nc(C)cc2C)n1 | active: 10 µM | 
36 | O=C(COc1ccc(Br)cc1)NCCNC(=O)c1ccccn1 |  | inactive: -0.755%
37 | O=c1c2c([nH]c3ccccc13)C(=C1CCCC1)CC2 |  | inactive: 6.49%
38 | O=C(NNC(=O)c1ccc(SCC2CCCO2)c([N+](=O)[O-])c1)c1ccc(Cl)c([N+](=O)[O-])c1 (configuration not stated) | inconclusive: 35.5 µM [inhibitor, single point] | 
39 | O=C(N/N=C/c1cccnc1)c1cc(-c2ccc(Br)cc2)nc2ccccc12 |  | inactive: -24.1%
40 | COc1ccc(C(=O)CCN2CCc3cc(OC)c(OC)cc3C2)cc1 | inconclusive: 29.9 µM [inhibitor, partial curve, poor fit] | 
41 | CCCCSCCCNC(=O)C1CCC(CNS(=O)(=O)c2ccccc2)CC1 (configuration not stated) | inconclusive: 12.6 µM [inhibitor, partial curve] | 
42 | O=c1c2ccccc2nc(-c2cccc(Cl)c2)n1O |  | inactive: -1.02%
43 | CSc1nn(Cc2ccc(Br)cc2)c(N(C(C)=O)C(C)=O)c1S(=O)(=O)c1ccccc1 | inconclusive: 28.2 µM [inhibitor, single point] | 
44 | Cc1ccc(C)c(Cn2c(CN(C)Cc3ccccc3)nc3c2c(=O)n(C)c(=O)n3C)c1 | inconclusive: 37.7 µM [inhibitor, single point] | 
45 | Cc1ccccc1Cn1cnc2c(cnn2C(C)(C)C)c1=O |  | inactive: 2.81%
46 | COCCNc1nc(NCc2ccccc2)nc2ccsc12 |  | inactive: -7.68%

Row | Compound | Potency | activity change, negative = inhibition
47 | O=C1NC[C@@H](c2ccccc2)OC(=O)[C@@H](Cc2ccc(F)cc2)C/C=C\C[C@@H]1CC(=O)N(CCO)Cc1ccccc1 | inconclusive: 39.8 µM [inhibitor, single point] | 
48 | O=C(CN1C(=O)c2ccccc2S1(=O)=O)c1ccc(F)c(F)c1 | inconclusive: 14.1 µM [inhibitor, partial curve] | 
49 | O=C(CCSc1ccc(Cl)cc1)N1CCN(c2ccc(O)cc2)CC1 | inconclusive: 3.16 µM [inhibitor, partial curve, poor fit] | 
50 | Cc1ccc2oc(=O)c3cnn(CC(=O)N(CCCN4CCOCC4)Cc4ccco4)c3c2c1 | inconclusive: 26.7 µM [inhibitor, single point] | 
51 | COc1cccc(/C=N/NC(=O)CSCC(=O)Nc2ccccc2)c1O | active: 28.2 µM | 
52 | CCCC[C@@H](CNC)NC[C@H](NCCCCC1CCCCC1)C(C)C | active: 25.1 µM | 
53 | CCOc1cc(/C=N/NC(=O)Cc2ccc(C(F)(F)F)cc2[N+](=O)[O-])c(Br)cc1OC | inconclusive: 14.1 µM [inhibitor, partial curve, poor fit] | 
54 | CNC[C@H](O)[C@@H](O)[C@H](O)[C@H](O)CO |  | inactive: 10.6%
55 | CSc1cccc(NC(=O)C2CCN(S(=O)(=O)c3ccc4c(c3)NC(=O)CO4)CC2)c1 | inconclusive: 28.2 µM [inhibitor, partial curve, poor fit] | 
56 | O=C(c1ccco1)N1CCN(CCCCOc2cccc3ccccc23)CC1 | inconclusive: 28.2 µM [inhibitor, partial curve, poor fit] | 
57 | O=C(CC1SCCNC1=O)Nc1cccc([N+](=O)[O-])c1 (configuration not stated) |  | inactive: -13.7%
58 | Cc1cc(/C=C\c2ccc3cc(N(C)C)ccc3[n+]2C)c(C)n1-c1ccccc1 | active: 1 µM | 
59 | CCn1cc(C(=O)O)c(=O)c2cc(F)c(N3CCN(C(=S)NC(=O)c4c(OC)cccc4OC)CC3)cc21 |  | inactive: 1.77%
60 | N=c1c2c(-c3ccccc3)c(-c3ccccc3)n(Cc3ccco3)c2ncn1Cc1ccco1 | inconclusive: 28.2 µM [inhibitor, single point] | 
61 | Cn1c(CN2CCCCC2)nc2cc(NS(=O)(=O)c3ccc(F)cc3)ccc21 |  | inactive: -5.79%
62 | CCCc1cc(=O)n2[nH]c(-c3ccc(C)cc3)nc2n1 |  | inactive: 13.4%
63 | COc1ccc(CNC(=O)C[C@H]2C[C@H](C(=O)N3CCOCC3)[C@@]3(CCC4CCCC4)c4[nH]c5cc(-c6ccco6)ccc5c4CCN3C2=O)cc1OC | inconclusive: 39.8 µM [inhibitor, single point] | 
64 | NC(=O)c1c(NC(=O)CSc2nnc(Cc3ccccc3)n2Cc2ccco2)sc2c1CCC2 | inconclusive: 28.2 µM [inhibitor, partial curve, poor fit] | 
65 | O=[N+]([O-])c1ccc(Cl)c(/C=N/N2CCN(c3ccccc3)CC2)c1 |  | inactive: 5.73%
66 | COc1ccc(CC(N)c2csc(NC(=O)C(c3ccccc3)c3ccccc3)n2)cc1 (configuration not stated) | inconclusive: 39.8 µM [inhibitor, single point] | 
67 | O=c1c2ccccc2ncn1Cc1cccc2ccccc12 |  | inactive: 0.613%
